Here are results for 167 variants from the RNAGym collection of RNA variant scans (doi:10.1093/nar/gkz1192).

The source gives no read counts; variants with many changes may rest on few reads.

B1: CPEB3 Ribozyme (parent)
chain: UAACAGGGGGCCACAGCAGAAGCGUUCACGUCGCAGCCCCUGUCAGAUUCUGGUGAAUCUGCGAAUUCUGCUGUAUAUCUC

The variants in this data set derive from B1. The data set can be described thus: self-cleavage, relative activity (ratio to wild type); higher = more cleavage; in vitro, sequencing. A digest of the protocol:
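Relative activity was defined as the cleaved/total read fraction for a variant divided by the same fraction for the unmutated ribozyme. CPEB3 self-cleaving ribozyme libraries were made by rounds of error-prone PCR, barcoded, and transcribed in vitro with T7 RNA polymerase for 5 hours at 37°C, and cleavage ran through transcription plus a 15 min DNase I step before EDTA. Illumina sequencing of template-switched reverse transcripts gave the reads, and DNA sequencing mapped the barcodes. Averages come from three batches, using variants with at least 5 reads.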
As to A5U A13U U66C, the self-cleavage worked out at 0.76.
For the variant A5U A13U C23U, the self-cleavage turned out to be 0.47.
The value for A5G G8U A20G U43C was 0.09; that for A5G U43C U74C was 0.41; that for A5G U25A U26C was 0.53.
The value for A5G U48A U54C A65G was 0.07; that for A5G G16U A65G U78C was 0.05; that for A5G G16C U26C A77G was 0.43.
For the variant A5G U49A U60A U67G, the self-cleavage was 0.1.
A5G G10C A20G A65U U76A: the self-cleavage worked out at 0.13.
For A5G U43A U49C U72C U80C the value was 0.52.
As for A5G U41G U49C A65G, the self-cleavage was 0.02.
For A5U A13G U25C U58C the value was 0.43; for A5G U31A U43A U49G A57G, 0.24; for A5G G30U A57G U76C, 0.49.
For A5G G24A A35G A45G the value was 0.3; for A5G U31G U49C A57G U67C U72A, 0.08; for A5U A13U G24U U25C A45U U51A, 0.1.
On to A5G U67C U69C, for which the self-cleavage was found to be 0.27.
For A5G U41A G55A C68A U72C the value was 0.15; for A5G G9C A20G A28G A47G, 0; for A5U A13U A47G U51A, 0.99.
The value for A5G G36U U54C U80C was 0.28.
The value for A5G U26A A35G was 0.84.
In the case of A5G G33A U60C A64G, the self-cleavage stood at 0.07.
A5G U51C A75G: the self-cleavage amounted to 0.66.
In the case of A5G G10A C27U C37A A45G U54A U67A, the self-cleavage was 0.06.
A5G G9U A18U: the self-cleavage was 0.36.
The value for A5G U31G U69G was 0.44; that for A5G G30U U49C G73A was 0.13.
For A5G G10A A47C the value was 0.07; for A5G G70A U72C, 0.11; for A5G G19A A45G, 0.21.
Turning to A5U A13G A20U, the self-cleavage is 0.24.
In the case of A5G G9U G33A U43C U69A, the self-cleavage stood at 0.15.
For A5G U43A A56U A57G U76C A77C the value was 0.41.
The value for A5G U51C U66A U78C was 0.1; that for A5G G24A G30U U41C U48C U54G A64U was 0.07.
A5G G53A U67G U72G: the self-cleavage is 0.08.
The value for A5U A15G A18G G73U was 0.47; that for A5G U60C U78C was 0.21; that for A5G G24A A28U A56U U66A was 0.22.
Consider A5G U31C A75C U78C, for which the self-cleavage came to 0.41.
The value for A5G U48C A56U A57G was 0.58; that for A5G U25A U48A A65G was 0.26; that for A5U A15G A20U U49C was 0.12.
Consider A5G U25A C62U, for which the self-cleavage was 0.09.
For A5G U48C U51G U76C the value was 0.06; for A5G U48C U54A U74C A75C, 0.98; for A5G U25C U41C, 0.57.
The value for A5U A13G C32G C38U A47G was 0.21; that for A5G U48C A56G U80C was 0.36; that for A5G U26A U80C was 0.58.
The value for A5G U26A A35U U41G A45G A65U was 0.17; that for A5G U43C A75G was 0.32; that for A5G G9A A13U A21G U26A U49C was 0.32.
In the case of A5G U25C C40U U51A U60C, the self-cleavage amounted to 0.34.
The value for A5G U26C C34U A35G A56G U58G was 0.08; that for A5U A13G C37G G42A U72A U76A was 0.14.
The value for A5G U31C U43C U49C was 0.25.
As for A5G G8U U25A A35G, the self-cleavage was determined as 0.22.
For A5G G53C A75G the value was 0.83.
For A5G U54C A65G U72C the value was 0.23; for A5G U25C U58C, 0.12.
The value for A5G U26C U76C was 0.51; that for A5U A13U A18G A35G A45G U60C was 1.16.
Consider A5G G9C A28G A47G U60A, for which the self-cleavage was 0.32.
The value for A5G G9A A56U was 0.11; that for A5G G16U U49C A77G was 0.11; that for A5U A13G A28G A64U was 0.22.
For A5G U26C U60A A75U the value was 0.15; for A5G U54G U69A, 0.15; for A5G U26A U72A, 0.3.
The value for A5G G10A U26G U78C was 0.35; that for A5G G8U U41C was 0.19; that for A5G U41C U76A was 0.33.
Turning to A5G U26C G46A G63A, the self-cleavage turned out to be 0.03.
The value for A5G U51C A57G U69A U74A U78C was 0.23; that for A5G U43C G53U A56G was 0.55.
The value for A5G U26C C39A U58A A65U was 0.09.
For A5G U43C A57G U80C the value was 0.38; for A5G G10C A13G U43A A64U A75U, 0.06; for A5G G16U A21G A35G, 0.44.
Consider A5U A13U U76A, for which the self-cleavage came to 1.21.
The value for A5G U25C U49G U54A U66C was 0.2; that for A5U A13U C23U A35U U51A A65G was 0.15; that for A5G U26A U54C was 0.43.
The value for A5U A13G U54A A56G U58C G70C was 0.2; that for A5G G9A A18U U54C U72C U74A was 0.06.
For A5G U41A A45G U49A the value was 0.03; for A5G G10C A20G U60C G63A U72G U78C, 0.08; for A5G U41G U51C U74C, 0.46.
As for A5U A13G U74C, the self-cleavage stood at 0.88.
A5G G24A A65G: the self-cleavage was 0.39.
As to A5G U31G U41C C62A, the self-cleavage is 0.5.
For A5G G53A U67C the value was 0.33; for A5G U43C U58C C59G, 0.08.
For A5G G9U A13G U48C G53A the value was 0.04.
The value for A5U A13U U31A U66C was 0.21; that for A5G U41A U78C was 0.24; that for A5U A13G U31C A56U C71U was 0.04.
For A5G U43A G46A, the self-cleavage came to 0.32.
The value for A5G U41C U69G was 0.15.
For A5U A13U G53C A57G the value was 0.47.
The value for A5G U49C G53A A56U was 0.26; that for A5G U31C C38A U43C U72A was 0.19; that for A5G U41C A75G was 0.5.
With A5G G55C A56G U74G, the self-cleavage stood at 0.78.
The value for A5G G33C A56U was 0.25; that for A5G G9U A21G C59A A65G was 0.31; that for A5G G9A U54A was 0.51.
For A5G U26A U31C A77G the value was 0.1; for A5U A13U A18U A65G U69A, 1.07.
For A5G U25A U26G U48A U51C A56U A75G the value was 0.
Regarding A5G U26C G36U A64G U76C, the self-cleavage turned out to be 0.09.
The value for A5G G36U U41A A45G A56G U80C was 0.2.
The value for A5G U26C U41C U43C was 0.58.
For A5G G10C A21G G22U A28C the value was 0.1; for A5G U31G C34U, 0.43; for A5G U48C U60A A64U, 0.16.
Turning to A5G U41C U78C, the self-cleavage was determined as 0.42.
For A5G G9A U26C C29G G33A C39U the value was 0.06; for A5U A13G A18G U25C A56U, 0.08; for A5G U66C C68A, 0.5.
For A5G U48C C62U A65G, the self-cleavage was found to be 0.14.
For A5G G8U A15U U69A U72C the value was 0.26; for A5G U49C U69C U74C U78C, 0.05; for A5G U49C U60A U78A U80C, 0.07.
For A5G U69A U76C U80A the value was 0.57.
Take A5U A13G A56G A65G U74C U80C: the self-cleavage is 0.37.
The value for A5G U26A U51C was 0.42; that for A5G G55A A57G was 0.38.
For A5G U43C A45U U60C A65G, the self-cleavage was determined as 0.22.
The value for A5G G33U U41G U58G was 0.07; that for A5G U25C U54C was 0.59; that for A5U A13U A20G C34U was 0.38.
With A5G U58A G61A, the self-cleavage turned out to be 0.31.
With A5G G9A A45U A77U, the self-cleavage turned out to be 0.12.
The value for A5G U25C U54C A65G U78C was 0.06.
Consider A5G G30C C40G, for which the self-cleavage worked out at 0.22.
In the case of A5G U31A U41A U80C, the self-cleavage stood at 0.08.
The value for A5U A13U U58A was 0.9.
The value for A5G U25A A35U U67G U74C was 0.06; that for A5U A13G U25A C34G U51C was 0.32; that for A5G U41C U66C was 0.32.
In the case of A5G U31C A64U, the self-cleavage was 0.25.
As to A5G U48C U54G, the self-cleavage was 0.36.
For A5G U26C A35U U43C U54A the value was 0.33.
The value for A5U A13G A18G U43C was 0.42; that for A5G U26A U43A A57G C68U C81U was 0.11; that for A5G G8C U67C A75C was 0.05.
The value for A5G U26A A35G A47G A57G A64G was 0.59.
For A5G U26A A35U A45G U49C, the self-cleavage was 0.07.
The value for A5G U43A A45G A57U U58A was 0.08.
For A5G U25G U26C G30C A56G, the self-cleavage came to 0.2.
The value for A5G U25C U69G U72C A75U was 0.05.
For A5G U31C U43C A57G U72A U80A, the self-cleavage worked out at 0.07.
The value for A5G U25C U43C U49A G61C U74A was 0.05; that for A5G U48C A65G was 0.28; that for A5G G9A A21U G55U A56U U60A was 0.14.
For A5G U26C U54A the value was 0.18.
The value for A5U A13G U78C was 0.92.
Consider A5U A13G U41A, for which the self-cleavage amounted to 0.18.
For A5G G9U A20G G24U U74C U78C the value was 0.14; for A5G G9A C14U U26C U31C A47G U58C, 0.05; for A5G U25C U66G U67C, 0.1.
For A5G U26C C29U U41C A56G the value was 0.33.
